Assay results published in the supplement of paper PMC4604168 (melanoma cell lines).
The list shows a part of the results. Many values rest on one well or one pass, so single values are uncertain.

Assays:
Assay in all cases: cell count relative to DMSO control; melanoma cells; higher = more viable cells
Settings in all cases: library dose: low library concentration; 72 h
COLO792 = tested on: COLO792
COLO800 = tested on: COLO800
COLO829 = tested on: COLO829
G361 = tested on: G361
IPC-298 = tested on: IPC-298
IST-MEL1 = tested on: IST-MEL1
LB2518-MEL = tested on: LB2518-MEL
LOXIMVI = tested on: LOXIMVI
MEL-HO = tested on: MEL-HO
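Also: cell number obtained by counting DAPI-stained nuclei in high-throughput microscope images with image analysis software, screen run in 1,536-well plates.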

SMILES | cell count (COLO792) | cell count (COLO800) | cell count (COLO829) | cell count (G361) | cell count (IPC-298) | cell count (IST-MEL1) | cell count (LB2518-MEL) | cell count (LOXIMVI) | cell count (MEL-HO)
CN1CCN(c2ccc3nc(-c4c(N)c5c(F)cccc5[nH]c4=O)[nH]c3c2)CC1 [Dovitinib] + CCCCCCCCCCCC1=C(O)C(=O)C=C(O)C1=O [Embelin] (first compound 0.1 µM, partner dose 1.2 µM) | 103% | 84.3% | 83.4% | 99.5% | 92.6% | 94.9% | 45.9% | 79.3% | 98.7%
C=CCNC1=C2C[C@@H](C)C[C@H](OC)[C@H](O)[C@@H](C)/C=C(\C)[C@H](OC(N)=O)[C@@H](OC)/C=C\C=C(/C)C(=O)NC(=CC1=O)C2=O [Tanespimycin] + NC(=O)Nc1cc(-c2cccc(F)c2)sc1C(=O)N[C@H]1CCCNC1 [AZD7762] (first compound 0.002 µM, partner dose 0.02 µM) | 92.9% | 89.8% | 106% | 97.8% | 110% | 103% | 118% | 113% | 102%
C[C@@H](Oc1cc(-c2cnn(C3CCNCC3)c2)cnc1N)c1c(Cl)ccc(F)c1Cl [Crizotinib] + Oc1nc(-c2ccc(C(F)(F)F)cc2)nc2c1CSCC2 [XAV939] (first compound 0.2 µM, partner dose 2 µM) | 79.3% | 89.1% | 84.6% | 84.9% | 101% | 92.2% | 99.5% | 113% | 102%
CN1CCN(c2ccc3nc(-c4c(N)c5c(F)cccc5[nH]c4=O)[nH]c3c2)CC1 [Dovitinib] + CC1(C)NC(=O)N(c2ccc([N+](=O)[O-])c(C(F)(F)F)c2)C1=O [nilutamide] (first compound 0.1 µM, partner dose 1 µM) | 82.9% | 81.9% | 83% | 95.7% | 103% | 95.4% | 84.5% | 93.2% | 98.7%
CN1CCN(c2ccc3nc(-c4c(N)c5c(F)cccc5[nH]c4=O)[nH]c3c2)CC1 [Dovitinib] + CN(NC(=O)CC(=O)NN(C)C(=S)c1ccccc1)C(=S)c1ccccc1 [STA4783] (first compound 0.1 µM, partner dose 0.006 µM) | 91.4% | 101% | 56.7% | 97.7% | 102% | 71.7% | 76.1% | 122% | 102%
CS(=O)(=O)CCNCc1ccc(-c2ccc3ncnc(Nc4ccc(OCc5cccc(F)c5)c(Cl)c4)c3c2)o1 [lapatinib] + O=C(CCCCCCC(=O)Nc1ccccc1)NO [vorinostat] (first compound 0.8 µM, partner dose 0.08 µM) | 93.8% | 136% | 104% | 99.3% | 105% | 89.7% | 98.8% | 86.1% | 95.2%
CN1CCN(c2ccc3nc(-c4c(N)c5c(F)cccc5[nH]c4=O)[nH]c3c2)CC1 [Dovitinib] + COc1ccc(-c2ccc3c(N4CCOCC4)nc(N4C[C@@H](C)O[C@@H](C)C4)nc3n2)cc1CO [KU0063794] (first compound 0.1 µM, partner dose 0.02 µM) | 95% | 92.1% | 97.6% | 112% | 99.9% | 97.7% | 95.5% | 81.5% | 107%
CNC(=O)c1cc(Oc2ccc(NC(=O)Nc3ccc(Cl)c(C(F)(F)F)c3)cc2)ccn1 [sorafenib] + O=C(Nc1cccc(Cl)c1)Nc1ncc(CCNc2ncnc3ccsc23)s1 [SNS314] (first compound 0.4 µM, partner dose 0.0008 µM) | 113% | 126% | 68.1% | 103% | 95.8% | 88% | 96.2% | 86.1% | 101%
CNC(=O)c1cc(Oc2ccc(NC(=O)Nc3ccc(Cl)c(C(F)(F)F)c3)cc2)ccn1 [sorafenib] + CCc1ccc(CCOc2ccc(CC3SC(=O)NC3=O)cc2)nc1 [pioglitazone] (first compound 0.4 µM, partner dose 2 µM) | 104% | 118% | 107% | 112% | 99.2% | 102% | 112% | 86.2% | 104%
CN1CCN(c2ccc3nc(-c4c(N)c5c(F)cccc5[nH]c4=O)[nH]c3c2)CC1 [Dovitinib] + CCN(CC)CCCCNc1ncc2cc(-c3cc(OC)cc(OC)c3)c(NC(=O)NC(C)(C)C)nc2n1 [PD173074] (first compound 0.1 µM, partner dose 0.1 µM) | 97.1% | 121% | 96.5% | 86.6% | 94.8% | 103% | 98.9% | 81.1% | 106%
C=CCNC1=C2C[C@@H](C)C[C@H](OC)[C@H](O)[C@@H](C)/C=C(\C)[C@H](OC(N)=O)[C@@H](OC)/C=C\C=C(/C)C(=O)NC(=CC1=O)C2=O [Tanespimycin] + CCc1ccc(CCOc2ccc(CC3SC(=O)NC3=O)cc2)nc1 [pioglitazone] (first compound 0.002 µM, partner dose 2 µM) | 97.6% | 95.5% | 101% | 95.1% | 101% | 101% | 103% | 67.3% | 115%
